Here are results for 86 sequences from the supplement of paper PMC3334620.

Whole data set: some 33,000 sequences, median “E-score (-0.5 to 0.5)” near -0.012, cut for the highest 2% near 0.27. This is one part of the list.

The target in the experiment is T1, Vhr1 (UniProt P40522).
T1 sequence: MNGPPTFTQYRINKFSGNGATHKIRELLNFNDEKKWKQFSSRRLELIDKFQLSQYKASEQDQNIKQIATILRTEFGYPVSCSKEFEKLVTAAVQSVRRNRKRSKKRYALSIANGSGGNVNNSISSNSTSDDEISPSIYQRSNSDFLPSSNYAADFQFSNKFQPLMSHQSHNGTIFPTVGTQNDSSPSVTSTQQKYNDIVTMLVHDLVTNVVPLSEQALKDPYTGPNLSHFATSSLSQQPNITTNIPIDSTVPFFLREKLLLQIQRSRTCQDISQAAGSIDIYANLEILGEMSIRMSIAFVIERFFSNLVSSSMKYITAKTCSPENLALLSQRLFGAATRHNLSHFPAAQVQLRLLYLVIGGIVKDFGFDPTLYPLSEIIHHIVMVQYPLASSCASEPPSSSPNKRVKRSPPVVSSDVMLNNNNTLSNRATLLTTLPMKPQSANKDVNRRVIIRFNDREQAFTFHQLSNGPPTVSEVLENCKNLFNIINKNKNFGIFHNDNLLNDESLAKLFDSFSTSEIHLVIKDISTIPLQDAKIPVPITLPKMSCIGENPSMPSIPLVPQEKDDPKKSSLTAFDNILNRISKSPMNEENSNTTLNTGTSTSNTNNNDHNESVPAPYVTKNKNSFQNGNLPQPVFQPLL
The experiment can be described thus: PBM E-score (8-mer binding enrichment) (E-score (-0.5 to 0.5)); higher = stronger / more preferred TF binding; most listed sequences are background and not binding sites. Conditions: protein concentration: 200 nM; construct: GST-full length. The procedure, abridged: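 Each ungapped eight-base word and its reverse complement, pooled, received an E-score from the Universal PBM Analysis Suite. Underlying scans, normalised with masliner, recorded fluorescent anti-GST bound to GST-tagged yeast transcription factors. These were applied at about 100-200 nM to universal all-10-mer Agilent arrays double-stranded by primer extension.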
As to ACGCTGGC, the “PBM E-score” value amounted to 0.0666.
The value for GACTGTGC was 0.0456.
The value for CCCCTGCG was -0.113; that for CCGACCCA was 0.114; that for CGCCGGCA was -0.107.
With CAAAGGCC the figure was -0.263; with ACGGGCCA, -0.101.
Consider ATTCGCGA, for which the “PBM E-score” value came out at 0.0967.
In the case of CCCCCCCG, the “PBM E-score” value is -0.162.
Regarding AAAAGCCT, the “PBM E-score” value was -0.344.
The value for ATAGTCAT was 0.411.
The value for GAAGTCAA was 0.0872.
The value for AGCCTTTC was -0.265.
With ATTCAACA, the “PBM E-score” value came out at 0.213.
With CCTTTAAC the figure was -0.173; with AATCCTTA, -0.15; with CACGCTCC, -0.154.
With CAGATATA the figure was 0.109; with CGAATCCG, 0.141; with AGATCGGA, 0.114.
With CCTGATTA, the “PBM E-score” value came out at 0.158.
For AATTGTCC, the “PBM E-score” value is -0.176.
On to ACAGTACA, for which the “PBM E-score” value worked out at 0.0785.
The value for ACACAAAG was 0.163.
CAAGTATG: the “PBM E-score” value is 0.197.
Consider TCGAGCGA, for which the “PBM E-score” value was determined as 0.00674.
Consider CAAATCAA, for which the “PBM E-score” value amounted to 0.0775.
The value for CCGCACAC was 0.203; that for AGCCTCCC was -0.142.
With ATACACTA, the “PBM E-score” value was 0.213.
Consider ATGTGGCG, for which the “PBM E-score” value stood at 0.0435.
Regarding GCCCTCGC, the “PBM E-score” value is -0.0563.
Take GTGTATAA: the “PBM E-score” value is -0.13.
For CCCGGGCC, the “PBM E-score” value is -0.111.
With CCGACTGA the figure was -0.0635; with CCGACGCC, 0.043.
For the sequence AATAGGGT, the “PBM E-score” value is 0.164.
CACACTCA: the “PBM E-score” value came out at 0.217.
For CAACGTCG, the “PBM E-score” value is 0.0725.
As to GACGCGGA, the “PBM E-score” value is -0.0732.
On to ATGTGCTC, for which the “PBM E-score” value was 0.17.
The value for ATCCCATG was 0.19.
With ATACACTC the figure was 0.0393; with CTCAAGGC, -0.0567.
The value for GTGAGGGA was -0.0444.
Regarding TAAGCACA, the “PBM E-score” value is 0.139.
As to AATTCTGA, the “PBM E-score” value is -0.0685.
The value for GTCCTCAA was -0.123.
The value for CGGGTCCC was -0.137; that for AGGAGAAC was -0.0673; that for CGTTGTAC was 0.0671.
Consider ATGGAGTA, for which the “PBM E-score” value is 0.185.
As for ATCCAGCA, the “PBM E-score” value was determined as 0.00537.
Take CCGCATAC: the “PBM E-score” value was found to be 0.122.
For GGTCAGCA, the “PBM E-score” value came out at 0.15.
As for GCGTATAC, the “PBM E-score” value was 0.131.
In the case of AAGCTCGA, the “PBM E-score” value was 0.0263.
The value for ACTGTTAC was 0.0454; that for CAGTGAAA was -0.0161; that for ATGTCTGA was 0.00358.
With ATGTCGTG, the “PBM E-score” value was -0.00889.
As for AGTTATAA, the “PBM E-score” value was -0.144.
The value for CTAATTCA was 0.00857; that for CGCATGTA was 0.00809; that for CGTACAAG was 0.0435.
The value for GGTTTGGA was 0.0865; that for CATATTAA was 0.0835.
With ACAGCCGG the figure was 0.216.
On to ACCAAGCA, for which the “PBM E-score” value came to 0.0753.
On to AGTTATGC, for which the “PBM E-score” value was 0.0781.
The value for ACCGCCTA was -0.0586; that for ACAGCACC was 0.0656.
Consider CCATTTTC, for which the “PBM E-score” value is -0.0941.
For the sequence GCGGGCCC, the “PBM E-score” value was -0.0329.
Consider CCCTCTTC, for which the “PBM E-score” value was -0.157.
The value for ATTCCCAA was 0.033.
Consider ACTGCTCA, for which the “PBM E-score” value was determined as 0.0795.
GGTCCTTA: the “PBM E-score” value was -0.12.
Turning to AGATTCCG, the “PBM E-score” value came out at 0.0316.
GAAAACCA: the “PBM E-score” value is -0.055.
The value for ATCGCATA was 0.0401; that for ATGGGATA was 0.00589; that for TGACTCAA was 0.468.
The value for ATCCAAAT was 0.0439; that for AGTTCCGC was -0.0148.
On to ACGAGGAT, for which the “PBM E-score” value is -0.0091.
